# Reference: PubChem BioAssay AID1460 (National Center for Advancing Translational Sciences (NCATS), 2008)
# The whole screen tested about 270,000 compounds, of which about 5,800 (2.1%) were called active. The shares of active, inactive and inconclusive entries below differ from those in the screen. Calls follow the shape of the dose curve; as a rule, active = well fitted inhibition curve with a large enough effect; inconclusive = small, poorly fitted or top-dose-only effect; inactive = flat fitted curve, though single readings scatter. A potency beside an inconclusive call is a rough fit, not a confirmed value.
# Molecular target: Microtubule-associated protein tau (Homo sapiens) (UniProt P10636)
# UniProt P10636, sequence (P10636 whole entry, looked up): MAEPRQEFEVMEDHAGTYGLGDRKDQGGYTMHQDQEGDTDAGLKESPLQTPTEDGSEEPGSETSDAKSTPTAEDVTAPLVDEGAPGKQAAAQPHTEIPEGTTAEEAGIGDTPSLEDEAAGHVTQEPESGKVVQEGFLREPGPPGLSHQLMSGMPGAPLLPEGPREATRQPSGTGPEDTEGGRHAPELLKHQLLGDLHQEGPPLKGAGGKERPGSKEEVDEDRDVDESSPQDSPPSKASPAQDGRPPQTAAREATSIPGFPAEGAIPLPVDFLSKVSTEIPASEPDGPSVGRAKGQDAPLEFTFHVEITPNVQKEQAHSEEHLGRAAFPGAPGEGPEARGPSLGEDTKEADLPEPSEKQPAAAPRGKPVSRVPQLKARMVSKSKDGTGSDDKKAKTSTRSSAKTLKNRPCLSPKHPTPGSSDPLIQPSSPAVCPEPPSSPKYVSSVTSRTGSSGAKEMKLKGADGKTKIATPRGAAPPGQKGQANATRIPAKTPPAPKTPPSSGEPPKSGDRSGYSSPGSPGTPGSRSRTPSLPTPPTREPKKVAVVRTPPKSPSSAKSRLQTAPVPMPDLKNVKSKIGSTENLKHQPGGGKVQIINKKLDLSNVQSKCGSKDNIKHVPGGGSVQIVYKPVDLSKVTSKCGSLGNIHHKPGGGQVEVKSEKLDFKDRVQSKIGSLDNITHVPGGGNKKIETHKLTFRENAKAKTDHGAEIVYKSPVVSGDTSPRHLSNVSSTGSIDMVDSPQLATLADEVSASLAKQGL
# Assay: qHTS for Inhibitors of Tau Fibril Formation, Thioflavin T Binding; also: nearly all actives have a fitted effect of over 55% in size
# Conditions: recombinant tau K18 P301L (four-repeat tau fragment), heparin-induced fibrillization, ThT fluorescence; series mostly up to 57.4 µM
# In short: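 Heparin-induced (20 uM) aggregation of recombinant human K18 P301L tau, 15 uM unlabeled with 0.24 uM labeled, pH 7 acetate buffer, 6 hr at 37 C with compound. Fibrils quantified by 30 uM ThT fluorescence after 1 hr ambient incubation.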
# % is scaled to controls: 0 for no effect and ±100 for the full control effect; potency is read from the fitted curve at half-maximal effect; tags tell the direction and shape of the fitted curve.
Structure (SMILES),Potency,"activity, negative = inhibition"
COc1ccc2c(CC(=O)OCC(=O)N3CCc4ccccc43)coc2c1,"inconclusive: 1.26 µM [inhibitor, full curve]",–
CO[C@H]1COC(=O)[C@@H](C)COC(=O)[C@@H](OCc2ccccc2)/C=C\[C@@H]1C,–,inactive: -2.24% [at 11.5 µM]
COc1cccc(CNC(=O)c2cc3c(s2)-c2c(C)cccc2OC3)c1,"inconclusive: 14.1 µM [inhibitor, partial curve]",–
CCc1cc2cc(C)ccc2nc1SCC(=O)N1CCN(C(=O)c2ccco2)CC1,"inconclusive: 25.1 µM [inhibitor, single point]",–
CCn1c(CNC(=O)C23CC4CC(CC(C4)C2)C3)nnc1SCC(=O)Nc1ccccc1,inactive,–
COC(=O)Nc1ccc(S(=O)(=O)N2CCCCC2C(=O)NCc2ccco2)cc1 (stereo not drawn),inactive,–
CC(=O)Nc1ccc(Nc2cc(C)nc3c(-c4ccc(Cl)cc4)cnn23)cc1,"inconclusive: 0.398 µM [inhibitor, full curve]",–
Cc1cccc(N2CCN(C(=O)c3c(C)oc4ncnc(N5CCCCC5)c34)CC2)c1C,"inconclusive: 7.08 µM [inhibitor, single point]",–
O=C(Nc1ccc(Cl)cc1Cl)c1cc(S(=O)(=O)N2CCc3ccccc32)ccc1F,inactive,–
N#CC1=C(N)N=C(SCc2cccc3ccccc23)C(C(N)=O)C12CCCCC2 (stereo not drawn),active: 20 µM,–
N#Cc1c(SCC(=O)N2CCCCC2)nsc1SCC(=O)N1CCCCC1,inactive,–
COC(=O)CS(=O)(=O)c1nnc([C@H](Cc2ccccc2)NC(=O)OC(C)(C)C)o1,"inconclusive: 39.8 µM [activator, single point]",–
CCOc1ncccc1C(=O)Nc1ccc(-c2cn3ccsc3n2)cc1,"inconclusive: 3.98 µM [inhibitor, partial curve]",–
CCOC(=O)c1c(C)[nH]c(N=Nc2cc(C(=O)O)cc(C(=O)O)c2)c1C,"inconclusive: 14.1 µM [inhibitor, partial curve]",–
CCc1cccc(NC(=O)CSCc2cc(=O)[nH][nH]2)c1,"inconclusive: 15.8 µM [inhibitor, partial curve]",–
CC(C)C(=O)Nc1ccc(N2CCN(c3ccc(F)cc3)CC2)cc1,"inconclusive: 1.41 µM [inhibitor, full curve]",–
O=C(O)Cc1ccc(N=Cc2c(O)ccc3ccccc23)cc1,"inconclusive: 31.6 µM [inhibitor, single point]",–
COC(=O)c1c(Oc2ccc(C(C)=O)cc2)nnc(-c2ccccc2)c1-c1ccccc1,"inconclusive: 5.01 µM [inhibitor, single point]",–
CC1=C(C)/C(=N/OC(=O)c2cccc([N+](=O)[O-])c2)C=CC1=O,"inconclusive: 20 µM [inhibitor, partial curve, poor fit]",–
Cc1cc(C)nc(SCC(=O)Nc2ccc(S(=O)(=O)N3CCCCC3)cc2)n1,inactive,–
CC(=O)c1ccc(-c2cccs2)s1,"inconclusive: 12.6 µM [inhibitor, partial curve]",–
Cc1ccnc(SCc2cc(=O)c(OC(=O)c3ccccc3)co2)n1,"inconclusive: 44.7 µM [inhibitor, single point]",–
CCOC(=O)C1=C(O)c2ccccc2C(=O)/C1=C\c1ccc(CC)cc1,active: 14.1 µM,–

Structure (SMILES),Potency,"activity, negative = inhibition"
CNC(=S)NNc1ccccc1[N+](=O)[O-],"inconclusive: 25.1 µM [inhibitor, partial curve]",–
CCOc1cccc(CNc2ccc(O)cc2)c1OCc1ccc(Cl)cc1Cl,active: 28.2 µM,–
Cc1ccc(Oc2ccc(NC(=O)CSc3n[nH]c(N)n3)cc2)cc1,inactive,–
COc1ccccc1NC(=O)c1cnc(SCC(=O)N2CCCc3ccccc32)n(C)c1=O,"inconclusive: 15.8 µM [inhibitor, partial curve]",–
CCOc1ccc(NC(=O)CC2C(=O)OCCN2CC)cc1 (stereo not drawn),"inconclusive: 10 µM [inhibitor, partial curve, poor fit]",–
COc1ccc(N2CCN(Cc3nc(-c4ccc(Cl)cc4Cl)no3)CC2)cc1,"inconclusive: 15.8 µM [inhibitor, partial curve]",–
COc1ccc(OC)c2sc(N3CCN(C(=O)C4CC4)CC3)nc12,"inconclusive: 28.2 µM [inhibitor, single point]",–
O=C(c1cccs1)N1CCN(c2ccc(F)cc2)CC1,inactive,–
CCc1ccccc1N1C(=O)N(Cc2ccccc2C)c2ccccc2S1(=O)=O,inactive,–
CCOC(=O)C1CCN(C(=O)C2CCN(c3nc4ccc(OC)cc4s3)CC2)CC1,"inconclusive: 10 µM [inhibitor, partial curve]",–
Cc1nn(-c2ccccn2)c2c1C(=O)C(Br)CC2 (stereo not drawn),active: 2.82 µM,–
CC(=O)c1ccc(OCC(=O)c2ccc(-c3ccccc3)cc2)cc1,"inconclusive: 11.2 µM [inhibitor, partial curve, poor fit]",–
Cc1cc(C(=O)CSc2nc3ccc(Cl)cc3[nH]2)c(C)n1CC1CCCO1 (stereo not drawn),"inconclusive: 39.8 µM [inhibitor, partial curve]",–
Cc1nc(N2CCOCC2)sc1C(=O)NN,"inconclusive: 28.2 µM [inhibitor, partial curve]",–
CCc1nnc(NC(=O)CSc2nnc3c(n2)[nH]c2ccccc23)s1,"inconclusive: 3.98 µM [inhibitor, single point]",–
Cc1sc2nc3ccc(N4CCCC4)nn3c(=O)c2c1C,"inconclusive: 28.2 µM [inhibitor, single point]",–
Cc1ccc2nc(-c3ccc(NC(=O)CSc4nc(N)cc(=O)[nH]4)cc3)sc2c1,"inconclusive: 0.891 µM [inhibitor, partial curve]",–
CS(=O)(=O)N(CC(=O)NCCc1ccccc1)c1cc(C(F)(F)F)ccc1Cl,inactive,–
O=C(/C=C/c1ccco1)NCC(=O)N/N=C/c1ccc([N+](=O)[O-])cc1,"inconclusive: 22.4 µM [inhibitor, partial curve]",–
CCOc1cc(/C=C2/C(=N)N3OC(C)=CC3=NC2=O)ccc1OCCOc1ccccc1,"inconclusive: 7.08 µM [inhibitor, full curve]",–
CC1(C)CCC2(C(=O)O)CC[C@]3(C)C(=CCC4[C@]5(C)CCC(O)C(C)(C)C5C(O)C[C@]43C)C2C1 (stereo partly drawn),"inconclusive: 0.631 µM [inhibitor, full curve, poor fit]",–
CC(C)Cn1nnnc1S(=O)(=O)Cc1cccc(C#N)c1,"inconclusive: 3.16 µM [inhibitor, partial curve]",–
Cn1c(=O)c2c(ncn2CC(=O)N/N=C/C=C/c2ccco2)n(C)c1=O,"inconclusive: 14.1 µM [inhibitor, partial curve, poor fit]",–

Structure (SMILES),Potency,"activity, negative = inhibition"
CCc1nc(N2CCN(C(=O)c3ccco3)CC2)c2oc3ccccc3c2n1,"inconclusive: 14.1 µM [inhibitor, partial curve]",–
COc1cc(OC)cc(C(=O)Nc2nc3ccccc3[nH]2)c1,"inconclusive: 17.8 µM [inhibitor, partial curve]",–
CCN(CC)c1ccc(N=Cc2ccc([N+](=O)[O-])o2)cc1,active: 10 µM,–
C=CCNC(=O)/C(C#N)=C/c1c(N2CC(C)OC(C)C2)nc2ccccn2c1=O (stereo not drawn),"inconclusive: 39.8 µM [inhibitor, single point]",–
COc1ccc(N2CCN(C(=O)c3cc4ccc5cccnc5c4[nH]3)CC2)cc1,"inconclusive: 15.8 µM [inhibitor, partial curve]",–
COc1ccc(-c2cc(C)nc3c(-c4ccc(OC)c(OC)c4)c(C)nn23)cc1,active: 10 µM,–
S=C(c1ccc(-c2ccccc2)o1)N1CCCCC1,active: 15.8 µM,–
CCN(CC)C(=O)Oc1ccc2c(=O)c(-c3ccc(OC)cc3)coc2c1,"inconclusive: 2.51 µM [inhibitor, full curve]",–
CCOC(=O)c1c(-c2ccc(C)o2)csc1NC(=O)CSc1nnc(C)s1,"inconclusive: 11.2 µM [inhibitor, partial curve]",–
CC(=O)c1ccc(NC(=O)C2=CC(c3ccc4c(c3)OCO4)=NS(=O)(=O)N2C)cc1,"inconclusive: 0.199 µM [activator, full curve]",–
COc1ccc(/C=C/C(=O)c2cc(F)ccc2OC(=O)c2ccccc2OC)cc1OC,"inconclusive: 3.55 µM [inhibitor, partial curve]",–
Cn1c(-c2ccccc2O)cc2ccccc21,"inconclusive: 39.8 µM [inhibitor, partial curve]",–
Fc1cc(Br)ccc1NC(=S)NCCc1ccccc1,"inconclusive: 39.8 µM [inhibitor, single point]",–
CCCCc1cc(=O)oc2cc(C)c(CN3CCCC3)c(O)c12,inactive,–
C/C(=N\Nc1cccc(C(=O)O)c1)c1ccc2c(c1)Nc1ccccc1S2,active: 5.01 µM,–
COc1ccccc1Oc1nc(-c2cccnc2)nc2ccccc12,"inconclusive: 25.1 µM [inhibitor, single point]",–
CC(=Nc1ccccc1)C1=C(O)COC1=O,inactive,–
CNC(=O)c1cc(Nc2nnc(-c3ccc(O)cc3)c3ccccc23)ccc1OC,"inconclusive: 2.51 µM [inhibitor, full curve, poor fit]",–
CCc1cccc(NC(=O)c2cc(S(=O)(=O)N(C)C)ccc2N2CCCC2)c1,inactive,–
C#CCOc1ccc(-c2nnc(Nc3cccc(C)c3)c3ccccc23)cc1,"inconclusive: 7.94 µM [inhibitor, partial curve]",–
CC1OC(Nc2cccc3ccccc23)C(O)C(O)C1O (stereo not drawn),inactive,–
Cc1ccc(NC(=O)c2cc(C)nc3c2c(C)nn3-c2cccc(Cl)c2C)c(C)c1,inactive,–
